According to PubChem BioAssay AID1745845 (National Center for Advancing Translational Sciences (NCATS), 2022):
Screen size: about 360,000 compounds; about 2,600 (0.72%) were called active. This list was built around the results that the source calls inconclusive (neither active nor inactive); the mix of calls is not that of the screen. The call rests on the fitted dose curve; in most records, active means well fitted inhibition curve with a large enough effect; inconclusive means small, poorly fitted or top-dose-only effect; inactive means no such curve, though single readings can be large or run the other way. Where the call is inconclusive, the potency comes from a doubtful curve fit.

experiment: Primary qHTS for Inhibitors of ATXN expression; conditions: HEK-293 ATXN2-luciferase reporter, luminescence, 24 h; activity change, negative = inhibition: at 57 µM (top of the series); further: nearly all actives have a fitted effect of over 55% in size
In short: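 qHTS (up to 57 uM final) was run with 24 h compound exposure of reporter cells at 37 °C. Each well was multiplexed: SteadyGlo luminescence measured ATXN2-luciferase expression after a fluorogenic Gly-Phe-AFC viability readout (25 uM final).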
On the % scale 0 is the no-effect control and ±100 the full control effect; potency means the concentration at half of the fitted maximal effect; tags describe the fitted curve by direction and shape.

| SMILES | activity change, negative = inhibition | Potency |
| --- | --- | --- |
| Cc1nn(Cc2ccccc2)c2c1C(c1ccc(Cl)cc1)C(C#N)=C(N)O2 (centres undefined) | inactive: -8.67% |  |
| Cc1ccc(S(=O)(=O)N2CC3(O)CN(C(=O)OC(C)C)N(C(=O)OC(C)C)CC3(OC(=O)NCC3CCCCC3)C2)cc1 (centres undefined) |  | inconclusive: 31.6 µM [inhibitor, single point] |
| COc1ccccc1OC(=O)c1ccc(S(=O)(=O)N(C)C)cc1 | inactive: -0.811% |  |
| CC(C)CNC(=O)N1[C@H](c2cccs2)[C@@H](C)C(=O)[C@@H](C)[C@@H]1c1cccs1 | inactive: -6.71% |  |
| O=C1[C@@H]2Cc3c([nH]c4ccccc34)C(c3ccccc3)N2C(=O)CN1C1CCN(Cc2ccccc2)CC1 (some centres undefined) |  | inconclusive: 11.2 µM [inhibitor, single point] |
| Cc1cccc(C(=O)N2CCC(=O)N(C(COCc3cccc(Cl)c3)Cc3ccccc3)CC2)c1 (centres undefined) |  | inconclusive: 35.5 µM [inhibitor, partial curve, poor fit] |
| CCCCCc1c(CC)ncn1CCc1ccccc1OC |  | inconclusive: 28.2 µM [inhibitor, partial curve, poor fit] |
| CC(=O)Nc1ccc(NC(=O)c2cccc(Oc3ccccc3)c2)cc1 | inactive: -5.29% |  |
| COc1ccc(CCN2C(=S)N(C)C(=O)C2CC(=O)Nc2ccc(OC)cc2)cc1 (centres undefined) | inactive: 3.65% |  |
| OC(Cc1cccc(Br)c1)c1ncc(-c2cccc(C(F)(F)F)c2)[nH]1 (centres undefined) |  | inconclusive: 28.2 µM [inhibitor, single point] |
| CCCN(CCC)C(=S)NC(=O)c1ccc(-c2ccccc2)cc1 |  | inconclusive: 14.1 µM [inhibitor, partial curve, poor fit] |
| CCn1c2ccccc2c2cc(NC(=O)CSc3nnc(-c4ccc(OC)cc4)n3N)ccc21 |  | inconclusive: 1.78 µM [inhibitor, single point] |
| COc1cccc(C(=O)NC2=NCCS2)c1 |  | inconclusive: 39.8 µM [inhibitor, single point] |
| c1ccc(CC2CCN(C(c3cccs3)c3nnnn3C3CCCC3)CC2)cc1 (centres undefined) | inactive: -12.5% |  |
| COc1ccc(CCNCC(O)Cn2c3ccccc3c3ccccc32)cc1OC (centres undefined) |  | inconclusive: 37.7 µM [inhibitor, single point] |
| Cc1ccc(C)c(OCC(=O)N/N=C/c2c(C)nn(-c3ccccc3)c2Cl)c1C |  | inconclusive: 12.6 µM [inhibitor, partial curve] |
| Oc1ccccc1CNc1cccc2cccnc12 |  | inconclusive: 0.752 µM [inhibitor, partial curve, poor fit] |
| CCCCS(=O)(=O)/C=C\C=C/S(=O)(=O)CCCC |  | active: 7.08 µM |
| CN(Cc1ccc(Cl)cc1)C(=O)c1ccc(S(=O)(=O)NCc2ccco2)cc1 | inactive: -3.68% |  |
| Cc1ccccc1OCCn1c(-c2ccc(Cl)cc2)nc2ccccc2c1=O | inactive: 1.35% |  |
| CC(C)c1ccc(NC(=O)C2(C)Cc3c(-c4cccc(C(N)=O)c4)ccnc3O2)cc1 (centres undefined) |  | inconclusive: 22.4 µM [inhibitor, partial curve, poor fit] |
| COc1ccc(-c2oc3ncn(CCN4CCOCC4)c(=N)c3c2-c2ccc(OC)cc2)cc1 |  | inconclusive: 17.8 µM [inhibitor, single point] |

| SMILES | activity change, negative = inhibition | Potency |
| --- | --- | --- |
| O=C(c1ccc(F)cc1)C1CCN(Cc2cn[nH]c2-c2ccccc2)CC1 |  | inconclusive: 18.9 µM [inhibitor, partial curve] |
| CN(C)c1ccc(-c2ccnc3c2CC(C)(C(=O)NCc2cccc(Cl)c2)O3)cc1 (centres undefined) |  | inconclusive: 10 µM [inhibitor, partial curve, poor fit] |
| CCN(CC)c1ccc(CNc2ccc3c(c2)ncn3C(C)(C)C)cc1 |  | inconclusive: 31.6 µM [inhibitor, partial curve, poor fit] |
| CCn1c(CN2CCC(C)CC2)nc2cc(NC(=O)COc3ccc(Cl)c(C)c3)ccc21 |  | inconclusive: 12.6 µM [inhibitor, partial curve] |
| CCc1ccc(-n2c(SCc3ccccc3Cl)nc3[nH]ncc3c2=O)cc1 |  | inconclusive: 20 µM [inhibitor, partial curve] |
| N#Cc1c(C2CCNCC2)cc(-c2c(O)cccc2OCC2CC2)nc1N |  | inconclusive: 17.2 µM [inhibitor, partial curve] |
| Fc1ccc(NCc2nnc(SCc3nnc(-c4ccccc4)o3)n2Cc2ccccc2)cc1 |  | inconclusive: 39.8 µM [inhibitor, partial curve, poor fit] |
| COc1ccc(C(C(=O)NC2CCCCC2)N(C(=O)c2sc(C)nc2C)c2ccc(OC)cc2)cc1 (centres undefined) |  | inconclusive: 39.8 µM [inhibitor, single point] |
| O=C(NCCCCCCNC(=O)c1ccccc1O)c1ccccc1O | inactive: -19.8% |  |
| COc1ccccc1C(=O)N(Cc1nc(-c2ccc(Cl)cc2)no1)C(C)C |  | inconclusive: 28.2 µM [inhibitor, partial curve, poor fit] |
| O=C1OCCC1Sc1nnc(-c2ccc(Br)cc2)o1 (centres undefined) |  | inconclusive: 17.8 µM [inhibitor, partial curve, poor fit] |
| COc1ccc2c(CN3CCN(c4ccccc4F)CC3)cc(=O)oc2c1 | inactive: -8.66% |  |
| COC(=O)Cc1c(C)nc2nc(-c3ccccc3)[nH]n2c1=O | inactive: -3.56% |  |
| Cn1c(NCC(O)c2ccccc2)nc2c1c(=O)n(Cc1ccc(Cl)c(Cl)c1)c(=O)n2C (centres undefined) |  | inconclusive: 39.8 µM [inhibitor, single point] |
| Cc1cc2nc(-c3cccc(NC(=O)C(C)C)c3C)oc2cc1C | inactive: 19.2% |  |
| CC1Cc2ccccc2N1S(=O)(=O)c1cccc(C(=O)Nc2cccnc2)c1 (centres undefined) | inactive: -27.3% |  |
| COc1ccc(-c2ccc3[nH]c4c(c3c2)CCN2C(=O)[C@@H]([C@H](C)O)[C@@H](N(C)C(=O)Nc3ccccc3)C[C@@H]42)cc1 |  | inconclusive: 25.1 µM [inhibitor, single point] |
| O=C(Nc1ccccc1)c1nnsc1S(=O)c1ccc(Cl)cc1 (centres undefined) |  | inconclusive: 39.8 µM [inhibitor, single point] |
| CCN1CCCc2cc(CN(CCN3CCOCC3)C(=S)Nc3ccc(C)cc3)ccc21 |  | inconclusive: 17.8 µM [inhibitor, partial curve, poor fit] |
| COc1ccc(-c2n[nH]c(=S)n2-c2ccccc2C)cc1 | inactive: -10.7% |  |
| O=C1Cc2cc(CCN3CCN(c4nsc5ccccc45)CC3)c(Cl)cc2N1 |  | inconclusive: 35.5 µM [inhibitor, single point] |
| Cc1cc(C)cc(NS(=O)(=O)c2ccc3[nH]cc(C(=O)NC4CCCCC4)c(=O)c3c2)c1 |  | inconclusive: 31.6 µM [inhibitor, single point] |

| SMILES | activity change, negative = inhibition | Potency |
| --- | --- | --- |
| O=C(Nc1cccc(F)c1)N1CCN(C/C=C/c2ccccc2)CC1 | inactive: -15.4% |  |
| Cc1ccc(NC(=O)CCC(=O)c2cc(C)sc2C)nc1 |  | inconclusive: 35.5 µM [inhibitor, single point] |
| Cc1nn(-c2ccccc2)c(N2CCCC2)c1/C=N/NC(=O)c1cc2ccccc2cc1O |  | inconclusive: 28.2 µM [inhibitor, partial curve] |
| N#Cc1c(NCCCO)nc(-c2ccco2)c2c1CCCC2 |  | inconclusive: 5.01 µM [inhibitor, partial curve, poor fit] |
| C=CC[C@@H](CC(=O)N(CCO)Cc1ccccc1)C(=O)N[C@@H](COC(=O)[C@H](CC=C)CC(=O)OC(C)(C)C)Cc1c[nH]c2ccccc12 |  | inconclusive: 35.5 µM [inhibitor, single point] |
| COc1ccc(O)c(/C=N/NC(=O)c2ccc(OCc3cccc(Br)c3)cc2)c1 |  | active: 3.16 µM |
| CCN(CC)Cc1cc(Nc2c3ccccc3nc3c4ccccc4n(C)c23)cc(CN(CC)CC)c1O |  | active: 20 µM |
| O=C(NC(=S)N1CCN(c2ccc(F)cc2)CC1)c1cccs1 |  | inconclusive: 39.8 µM [inhibitor, single point] |
| O=C(CCCN1C(=O)/C(=C/c2ccccc2Cl)SC1=S)NNC(=O)c1cccnc1 |  | inconclusive: 42.3 µM [inhibitor, partial curve, poor fit] |
| COc1ccc(S(=O)(=O)N(C)c2ccc(C(=O)N3CCCCC3)cc2)cc1OC | inactive: -15.7% |  |
| COc1cc2c(cc1OC)C(C)N(CC(=O)Nc1ccc(S(=O)(=O)N3CCCC3)cc1)CC2 (centres undefined) |  | inconclusive: 3.55 µM [inhibitor, partial curve, poor fit] |
| COc1ccc(CCNC(=O)Nc2cccs2)c(OC)c1 | inactive: 12.8% |  |
| O=C(Cc1ccc(-n2c(=O)[nH]c3ccsc3c2=O)cc1)N1CCN(c2ccc(Cl)cc2)CC1 |  | inconclusive: 3.36 µM [inhibitor, partial curve, poor fit] |
| Cc1[nH]c2ccccc2c1C1=CC(=O)C=CC1=O |  | inconclusive: 39.8 µM [inhibitor, single point] |
| O=C(Nc1ccc(N2CCN(C(=O)c3ccc(Cl)cc3)CC2)cc1)c1ccc2c(c1)OCCO2 |  | inconclusive: 22.4 µM [inhibitor, partial curve, poor fit] |
| Cc1ccc(CNC(=O)CN(c2cccc(C)c2C)S(=O)(=O)c2ccccc2)cc1 | inactive: -30.8% |  |
| C[C@H](O)C#Cc1ccc2c(c1)O[C@@H](CN(C)Cc1ccc(-c3ccccc3)cc1)[C@H](C)CN([C@@H](C)CO)S2(=O)=O |  | active: 20 µM |
| Cc1sc(NC(=O)c2ccco2)nc1-c1ccc2c(c1)CC(C)N2C(=O)C1CC1 (centres undefined) |  | inconclusive: 31.6 µM [inhibitor, single point] |
| CCOc1ccc(NC(=O)c2ccccn2)cc1 |  | active: 10 µM |
| O=C(Cn1ncc(Cl)c(Cl)c1=O)N1CCN(S(=O)(=O)c2ccc3ccccc3c2)CC1 |  | inconclusive: 20 µM [inhibitor, partial curve, poor fit] |
